Source: the supplement of paper PMC3334620
The full ranking holds about 33,000 sequences; the median of “E-score (-0.5 to 0.5)” is about -0.041, and the highest 2% start at about 0.37. This is one part of the list.

The sequences below were run against T1, Ecm22 (UniProt Q05958) (assay: PBM E-score (8-mer binding enrichment) (E-score (-0.5 to 0.5)); higher = stronger / more preferred TF binding; most listed sequences are background and not binding sites). Conditions: protein concentration: 200 nM; construct: GST-full length.
T1 sequence: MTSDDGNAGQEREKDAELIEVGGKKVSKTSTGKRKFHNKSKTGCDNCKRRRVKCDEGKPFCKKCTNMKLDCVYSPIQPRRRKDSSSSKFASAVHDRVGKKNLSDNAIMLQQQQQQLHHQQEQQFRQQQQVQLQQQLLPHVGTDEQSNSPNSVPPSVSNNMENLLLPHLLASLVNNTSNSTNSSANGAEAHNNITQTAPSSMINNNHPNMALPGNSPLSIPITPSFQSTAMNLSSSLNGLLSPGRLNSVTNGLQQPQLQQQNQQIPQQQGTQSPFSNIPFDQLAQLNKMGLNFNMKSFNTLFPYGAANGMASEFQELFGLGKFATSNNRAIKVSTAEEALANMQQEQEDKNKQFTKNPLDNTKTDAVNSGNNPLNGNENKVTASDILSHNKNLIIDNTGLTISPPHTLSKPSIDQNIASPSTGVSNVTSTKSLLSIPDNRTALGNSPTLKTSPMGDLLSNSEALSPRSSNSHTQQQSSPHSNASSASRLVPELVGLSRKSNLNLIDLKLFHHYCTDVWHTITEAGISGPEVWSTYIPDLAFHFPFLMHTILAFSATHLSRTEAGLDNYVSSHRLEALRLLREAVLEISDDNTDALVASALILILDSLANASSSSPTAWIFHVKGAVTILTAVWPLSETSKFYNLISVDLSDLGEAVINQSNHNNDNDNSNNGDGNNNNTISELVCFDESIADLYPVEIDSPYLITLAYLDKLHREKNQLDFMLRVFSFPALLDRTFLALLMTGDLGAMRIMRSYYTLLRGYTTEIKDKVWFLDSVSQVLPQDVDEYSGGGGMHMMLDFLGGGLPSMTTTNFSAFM
How it was run: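 Each ungapped eight-base word and its reverse complement, pooled, received an E-score from the Universal PBM Analysis Suite. Underlying scans, normalised with masliner, recorded fluorescent anti-GST bound to GST-tagged yeast transcription factors. These were applied at about 100-200 nM to universal all-10-mer Agilent arrays double-stranded by primer extension.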

Sequence	PBM E-score
ATACAATC	0.176
AAACTCCA	-0.0923
TAAGTTGA	-0.105
ACAGTCAC	-0.126
GGCATACA	-0.082
CCCAGAGC	-0.286
CAGGCGTA	0.0954
ACTTCCCT	-0.15
GAGTGCCC	-0.206
GGTTCACA	-0.217
ATCCGCGA	-0.00107
AAGGTATA	-0.0141
TAAGCGCA	-0.0945
ACCAATGG	-0.288
CCCCAGAA	-0.194
CACCCACC	-0.214
CCTCGAAA	0.0231
AAGGAGTA	-0.178
CGAACTTA	0.25
ATCGTCTA	0.0467
CGACGTGC	0.154
AATTGTCG	0.134
TATGGCCA	-0.247
CTTAACTC	0.03
AGTCGACA	0.114

Sequence	PBM E-score
GGCGATGA	-0.00497
AGAGCTCT	-0.41
AGCCCGAG	-0.00628
CGGCCAGC	-0.0653
CCAAGCCG	-0.193
ACCAGCAC	-0.174
CTCAGGTC	-0.0857
CACTTGCC	-0.223
GCCACCAC	-0.209
CTCAACCC	-0.14
CATGACCC	-0.258
ATTTATGG	0.0199
CTGCCTAA	-0.118
GGAACAGA	-0.378
TCTTTGCA	0.0516
AAGCGTGC	-0.0355
CATGTAGC	-0.0208
CCGCAGAA	-0.077
GCATACGA	0.446
ATGACCCG	-0.00499
CGTTTTCC	0.159
CGCGCACG	0.0983
GACATGAA	-0.195
CGCTTTCA	0.0279
AATACTCG	0.125

Sequence	PBM E-score
CTACAAGA	-0.133
CGTCTGTC	-0.0468
CTCTAACC	-0.209
CAGCTCCG	0.0485
TAAGCCTA	-0.106
AACTATAA	0.039
CTTCTAAC	-0.264
GGACTTCA	-0.293
CGTAGCAG	0.191
ACTTGGCA	-0.0966
GATGGACC	0.058
CGACGCAC	0.208
GTTCTCAA	0.0253
AGCCTATG	-0.213
ACTACAAG	-0.0142
ACTTCGCG	0.198
GACGTTAC	0.119
GTCTGGAA	-0.153
AAGGAGCG	0.175
AGGGTACC	-0.323
GCGACATA	0.22
GATATCCC	0.00619
AATTCACC	0.0105
AAGATGGC	-0.155
ATGATCGA	0.159

Sequence	PBM E-score
CAATGTGC	0.0423
GATATGCA	-0.0569
ACGGATCC	0.143
TACCCTAA	-0.0756
GTGCAACA	-0.186
AGGTTTAT	0.124
GTGTGATA	0.114
CGATGTTA	0.059
CCTGTGCG	0.11
CAACTTAA	-0.0758
AGTAGAAA	0.209
CACTTACC	0.123
TGCCATAA	-0.175
CGGGGAAA	0.129
GAAGTAAC	0.00286
GTAACAAC	0.0567
AAGTCTTA	-0.235
GGCGTGCA	-0.335
GCTAACAA	-0.0961
CGTCGATC	0.0984
CTCATCGC	0.12
ACCATAGA	-0.0717
GTGCATGA	-0.0809
TACACACA	0.114
CTAACAAA	-0.111

Sequence	PBM E-score
AACCAGTA	0.0606
AAACTGAT	-0.143
ATAATGAG	0.0122
CACACCTG	-0.231
GCCTACCA	-0.208
AGGCACGG	-0.211
CTCAGTTC	-0.0715
AAGACGTG	-0.277
GCATAGTA	0.145
AGATTGAT	-0.192
GCCGTCTA	-0.065
CATGTTGA	0.00657
CCATGCTA	-0.221
ATCTGTCG	0.273
ATCCCTTA	0.0128
TCTTCAAA	-0.272
ATCTAAAA	-0.0793
CTGATAAC	0.0201
AATTTTTC	-0.00256
CGCACTCC	-0.141
ACCCGAAT	0.193
ACTGACTG	-0.0687
TAATACTA	0.114
AACGGACA	0.18
CCTAATGC	-0.239

Sequence	PBM E-score
AGGCGTAC	0.189
ACGGAGCC	-0.084
ACTTGTAG	0.00491
GACTTAGC	-0.147
ACAGTGCC	0.018
ACCTCGGC	0.0664
TCCTCGAA	0.00767
GAAAATTC	-0.0137
ATCCGCAC	-0.0995
GGATACAC	-0.032
CACAATCA	-0.129
ATCTTGCC	-0.0639
CCATAAAG	-0.136
AGACGCAT	-0.0787
TCCCCGGA	0.00406
GAACCGCC	-0.00706
CTAGTTTC	0.0456
CAGGGGAA	-0.0465
CGTTCGCC	0.196
CGTAAGGC	0.143
TCGCACCA	0.324
CGCACGGA	0.0184
GAGATTAC	0.0343
CGGTCGCC	0.183
CTACACCC	-0.4

Sequence	PBM E-score
GCGGCCAC	-0.227
CGGTATCC	0.0456
TTACCCAA	-0.096
ACCACACT	-0.0561
ATAAATAT	0.099
CTGAGGGC	-0.18
CCCTCGCG	0.25
TAGTGCGA	0.0691
TAGCTTGA	0.0442
ATAATTGA	0.0412
GACGAAGA	0.0867
CGTGTAAC	-0.00508
ATCCCTCC	-0.275
AGTGAGAA	-0.0668
AGTACCAT	0.0273
GCTCGCTA	0.31
ATAGGAGG	-0.29
TGGAATAA	-0.0683
CAGACATG	-0.147
AGCTACCC	-0.256
ATTATGCC	0.0538
CGACCGTC	-0.036
